Among all 360,000 compounds or so, about 25,000 (6.9%) were called active. This list was built around the results that the source calls inconclusive (neither active nor inactive); the mix of calls is not that of the screen. Calls follow the shape of the dose curve; as a rule, active = well fitted inhibition curve with a large enough effect; inconclusive = small, poorly fitted or top-dose-only effect; inactive = flat fitted curve, though single readings scatter. Potencies of inconclusive entries are doubtful fits and often do not repeat.
target: Luciferin 4-monooxygenase (Photinus pyralis) (UniProt P08659); experiment: qHTS profiling assay for firefly luciferase inhibitor/activator using purifed enzyme and Km concentrations of substrates (counterscreen for miR-21 project); details: purified FLuc, luminescence inhibition; activity change, negative = inhibition: at 57.5 µM (top of the series); also: nearly all actives have a fitted effect of over 55% in size;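 as to activity change, negative = inhibition: plate controls were vehicle for no effect and reference inhibitor for full effect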
UniProt P08659, sequence (P08659 whole entry, looked up): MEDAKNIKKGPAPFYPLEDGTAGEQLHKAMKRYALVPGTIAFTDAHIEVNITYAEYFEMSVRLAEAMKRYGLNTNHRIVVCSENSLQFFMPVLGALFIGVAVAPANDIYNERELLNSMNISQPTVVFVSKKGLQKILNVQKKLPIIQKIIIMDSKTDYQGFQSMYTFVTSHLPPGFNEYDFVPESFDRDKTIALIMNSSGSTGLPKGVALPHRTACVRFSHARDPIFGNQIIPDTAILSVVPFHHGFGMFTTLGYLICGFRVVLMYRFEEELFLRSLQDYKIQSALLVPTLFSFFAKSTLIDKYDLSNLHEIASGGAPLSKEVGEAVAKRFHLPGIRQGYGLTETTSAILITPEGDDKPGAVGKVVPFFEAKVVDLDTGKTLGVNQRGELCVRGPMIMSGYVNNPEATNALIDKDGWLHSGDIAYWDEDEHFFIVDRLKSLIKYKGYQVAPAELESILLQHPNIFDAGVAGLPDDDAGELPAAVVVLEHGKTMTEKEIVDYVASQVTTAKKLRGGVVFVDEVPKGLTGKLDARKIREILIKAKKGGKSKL
Procedure, shortened: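 Biochemical qHTS of compounds, final roughly 60 µM downward over six points, against 10 nM purified firefly luciferase using Km concentrations of substrates (10 uM D-luciferin, 10 uM ATP) in Tris acetate pH 7.5 buffer; luminescence output.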
Potency is read from the fitted curve at half-maximal effect; tags tell the direction and shape of the fitted curve.

Compound | activity change, negative = inhibition | Potency
Cc1cccc(N(C(=O)c2ccco2)C(C(=O)NC2CCCC2)c2ccco2)c1C (stereo not given) | inactive: 0.0756% | 
CCN(C(=O)CSc1nc2ccccc2n1Cc1ccccc1C#N)c1ccccc1 | inactive: -6.87% | 
COC(=O)c1ccc(CON2C(=O)c3ccccc3C2=O)cc1 |  | inconclusive: 3.01 µM [inhibitor, full curve, poor fit]
COC(=O)c1ccc(N=NNc2ccc(C(=O)OC)cc2)cc1 |  | inconclusive: 16.9 µM [inhibitor, partial curve]
COc1ccc(-c2nn(-c3ccccc3)cc2/C=N/NC(=O)c2ccc3c(c2)OCO3)cc1 |  | inconclusive: 7.57 µM [inhibitor, full curve]
COc1ccc(C(=O)N2C(=S)NC(=O)/C2=C\c2ccc(C)cc2)cc1 |  | inconclusive: 26.9 µM [inhibitor, single point]
CC(C)(C)c1cnnn1-c1ccc(NC(=O)c2ccc3c(c2)OCO3)cc1 |  | inconclusive: 23.9 µM [inhibitor, partial curve, poor fit]
CCCCNC(=O)COC(=O)c1ccccc1F |  | inconclusive: 37.9 µM [inhibitor, partial curve, poor fit]
O=C(OC1CCOC1=O)c1cc(-c2ccc(Br)cc2)nc2ccccc12 (stereo not given) |  | active: 19 µM
CCNC(=O)CSc1nc(-c2ccc(F)cc2)cs1 |  | inconclusive: 21.3 µM [inhibitor, partial curve, poor fit]
CSc1ccc(/C=C2/C(=N)N3N=C(CC(=O)N4CCCC4)SC3=NC2=O)cc1 |  | inconclusive: 30.1 µM [inhibitor, single point]
COc1ccccc1NC(=O)c1ccc(C(=O)c2ccccc2)o1 |  | inconclusive: 16.9 µM [inhibitor, partial curve]
CCOc1ccc(N(CC)C(=O)CCS(=O)(=O)c2cccc3nonc23)cc1 | inactive: -0.201% | 
COc1cc(/C=N/Nc2ccc(Cl)nn2)cc(OC)c1O |  | active: 13.5 µM
Oc1ccc2ccccc2c1C=NCc1cn2ccsc2n1 |  | active: 19 µM
Cc1ccc(NC(=O)CCCn2c(=O)c3cccn3c3ccccc32)cc1Cl |  | inconclusive: 26.9 µM [inhibitor, partial curve, poor fit]
Cc1cc(Br)cc2c(C(=O)NCC3CCCO3)cc(-c3cccs3)nc12 (stereo not given) |  | inconclusive: 3.01 µM [inhibitor, partial curve, poor fit]
COc1ccccc1N1CCN(S(=O)(=O)c2cn(C)nc2C)CC1 | inactive: -1.19% | 
Oc1ccc(/C=N/NC(=S)Nc2cccnc2)c(O)c1O |  | active: 19 µM
COc1ccc(-n2nc(C(=O)NCC(=O)NC3CCCC(C)C3C)c3ccccc3c2=O)cc1 (stereo not given) |  | inconclusive: 26.9 µM [inhibitor, single point]

— PubChem BioAssay AID588342 (National Center for Advancing Translational Sciences (NCATS), 2011)
